One test deals with Coxsackie B1. The experiment in a line: organism not typed. The note with it: read-out: Coxsackie B1 EC50.
The next test has as its system Coxsackie B3. The experiment in a line: microbe, parasite or virus in culture. The note with it: Enterovirus B, B3, read-out: Coxsackie B3 EC50.
In another test the test system is Rhinovirus. The test is described as follows: microbe, parasite or virus in culture. In kind it is cell-based. The following applies: Enterovirus.
[1] abbreviates: HRV14, read-out: Rhino HRV14 EC50.
[2] abbreviates: HRV21, read-out: Rhino HRV21 EC50.
Setting [3] is: HRV71, read-out: Rhino HRV71 EC50.

≈ marks a conversion by molar mass, not a printed value. Read-outs that look alike come from different tables or passages of the source.

Usually EC50 stands for the concentration at which the effect is half-maximal.

As to `CC(C)c1ccc2c(c1)OC1(O)c3cccc(N)c3C(=O)C21NC(=O)c1ccc[nH]1` (stereo not shown) [Example 233, N-(1-Amino-4b-hydroxy-7-isopropyl-10-oxo-9b,10-dihydro-4bH-indeno[1,2-b]benzofuran-9b-yl)-1H-pyrrole-2-carboxamide], the EC50 in the test on Coxsackie B1 was under 0.01 µg/mL; in the test with Coxsackie B3, under 0.01 µg/mL; in the test with Rhinovirus (setting [1]), under 0.01 µg/mL; in the test with Rhinovirus (setting [2]), under 1 µg/mL; in the test with Rhinovirus (setting [3]), under 1 µg/mL.
Regarding `COc1cc(C(=O)NC23C(=O)c4c(N)cccc4C2(O)Oc2cc(C(C)C)ccc23)ccn1` (stereo not shown) [Example 234, N-(1-Amino-4b-hydroxy-7-isopropyl-10-oxo-9b,10-dihydro-4bH-indeno[1,2-b]benzofuran-9b-yl)-2-methoxyisonicotinamide], the 50% effective concentration (EC50) is under 0.01 µg/mL with Coxsackie B1; under 0.01 µg/mL with Coxsackie B3; under 0.01 µg/mL in the test with Rhinovirus (setting [1]); under 1 µg/mL in the test on Rhinovirus (setting [2]); under 1 µg/mL with Rhinovirus (setting [3]).
`CC(C)c1ccc2c(c1)OC1(O)c3cccc(N)c3C(=O)C21NC(=O)c1cc2ccccc2s1` (stereo not shown) [Example 235, N-(1-Amino-4b-hydroxy-7-isopropyl-10-oxo-9b,10-dihydro-4bH-benzo[d]indeno[1,2-b]furan-9b-yl)benzo[b]thiophene-2-carboxamide]: the 50% effective concentration (EC50) in the test with Coxsackie B1 is under 0.01 µg/mL; in the test with Coxsackie B3 it was under 0.01 µg/mL; with Rhinovirus (setting [1]), under 0.01 µg/mL; in the test on Rhinovirus (setting [2]), under 1 µg/mL; in the test with Rhinovirus (setting [3]), under 1 µg/mL.
For the compound `CC(C)c1ccc2c(c1)OC1(O)c3cccc(N)c3C(=O)C21NC(=O)c1cnnc2ccccc12` (stereo not shown) [Example 238, N-(1-Amino-4b-hydroxy-7-isopropyl-10-oxo-9b,10-dihydro-4bH-benzo[d]indeno[1,2-b]furan-9b-yl)cinnoline-4-carboxamide], the EC50 in the test on Coxsackie B1 is under 0.01 µg/mL; in the test with Coxsackie B3 it was under 0.01 µg/mL; in the test on Rhinovirus (setting [1]) it was under 0.01 µg/mL; with Rhinovirus (setting [2]) it was under 1 µg/mL.
Take `CC(C)c1ccc2c(c1)OC1(O)c3ccccc3C(=O)C21NC(=O)c1ccc2[nH]cnc2c1` (stereo not shown) [Example 240, N-(4b-hydroxy-7-isopropyl-10-oxo-9b,10-dihydro-4bH-benzo[d]indeno[1,2-b]furan-9b-yl)-1H-benzo[d]imidazole-5-carboxamide]: the concentration for a half-maximal effect (EC50) in the test with Coxsackie B1, in the test on Coxsackie B3 and in the test on Rhinovirus (setting [1]) was under 0.01 µg/mL throughout.
For `CC(C)c1ccc2c(c1)OC1(O)c3cccc(N)c3C(=O)C21NC(=O)c1n[nH]cc1[N+](=O)[O-]` (stereo not shown) [Example 242, N-(1-Amino-4b-hydroxy-7-isopropyl-10-oxo-9b,10-dihydro-4bH-benzo[d]indeno[1,2-b]furan-9b-yl)-4-nitro-1H-pyrazole-3-carboxamide], the concentration giving a half-maximal response (EC50) in the test with Coxsackie B1 is under 0.01 µg/mL; in the test with Coxsackie B3, under 0.01 µg/mL; in the test with Rhinovirus (setting [1]), under 0.01 µg/mL; in the test with Rhinovirus (setting [2]), under 1 µg/mL; in the test with Rhinovirus (setting [3]), under 1 µg/mL.
With `Cc1ccnc(C(=O)NC23C(=O)c4c(N)cccc4C2(O)Oc2cc(C(C)C)ccc23)c1` (stereo not shown) [Example 243, N-(1-Amino-4b-hydroxy-7-isopropyl-10-oxo-9b,10-dihydro-4bH-benzo[d]indeno[1,2-b]furan-9b-yl)-4-methylpicolinamide], the EC50 in the test with Coxsackie B1, with Coxsackie B3 and in the test with Rhinovirus (setting [1]) was under 0.01 µg/mL in each case.
With `CC(C)c1ccc2c(c1)OC1(O)c3cccc(N)c3C(=O)C21NC(=O)c1cc(C(F)(F)F)ccn1` (stereo not shown) [Example 244, N-(1-Amino-4b-hydroxy-7-isopropyl-10-oxo-9b,10-dihydro-4bH-benzo[d]indeno[1,2-b]furan-9b-yl)-4-(trifluoromethyl)picolinamide], the half-maximal effective concentration (EC50) with Coxsackie B1 is under 0.01 µg/mL; in the test with Coxsackie B3, under 0.01 µg/mL; in the test on Rhinovirus (setting [1]), under 0.01 µg/mL; in the test on Rhinovirus (setting [3]) it was under 1 µg/mL.
For the compound `CC(C)c1ccc2c(c1)OC1(O)c3cccc(N)c3C(=O)C21NC(=O)c1ccc(C#N)cn1` (stereo not shown) [Example 245, N-(1-Amino-4b-hydroxy-7-isopropyl-10-oxo-9b,10-dihydro-4bH-benzo[d]indeno[1,2-b]furan-9b-yl)-5-cyanopicolinamide], the 50% effective concentration (EC50) is under 0.01 µg/mL in the test on Coxsackie B1; under 0.01 µg/mL with Coxsackie B3; under 0.01 µg/mL in the test on Rhinovirus (setting [1]); under 1 µg/mL in the test with Rhinovirus (setting [2]); under 1 µg/mL in the test with Rhinovirus (setting [3]).
With `CC(C)c1ccc2c(c1)OC1(O)c3cccc(N)c3C(=O)C21NC(=O)c1ncccc1Cl` (stereo not shown) [Example 246, N-(1-Amino-4b-hydroxy-7-isopropyl-10-oxo-9b,10-dihydro-4bH-benzo[d]indeno[1,2-b]furan-9b-yl)-3-chloropicolinamide], the 50% effective concentration (EC50) in the test on Coxsackie B1, in the test with Coxsackie B3 and with Rhinovirus (setting [1]) was under 0.01 µg/mL throughout.
In the case of `COc1cc(C(=O)NC23C(=O)c4c(N)cccc4C2(O)Oc2cc(C(C)C)ccc23)nc2ccccc12` (stereo not shown) [Example 247, N-(1-Amino-4b-hydroxy-7-isopropyl-10-oxo-9b,10-dihydro-4bH-benzo[d]indeno[1,2-b]furan-9b-yl)-4-methoxyquinoline-2-carboxamide], the half-maximal effective concentration (EC50) was under 0.01 µg/mL in the test on Coxsackie B1, 0.013 µg/mL (≈ 0.0262 µM) in the test on Coxsackie B3 and 0.036 µg/mL (≈ 0.0726 µM) in the test with Rhinovirus (setting [1]).
As for `CC(C)c1ccc2c(c1)OC1(O)c3cccc(N)c3C(=O)C21NC(=O)c1cc2ccccc2cn1` (stereo not shown) [Example 248, N-(1-Amino-4b-hydroxy-7-isopropyl-10-oxo-9b,10-dihydro-4bH-indeno[1,2-b]benzofuran-9b-yl)isoquinoline-3-carboxamide], the half-maximal effective concentration (EC50) with Coxsackie B1, in the test with Coxsackie B3 and in the test on Rhinovirus (setting [1]) was under 0.01 µg/mL in each case.
Consider `Cc1cc(C(=O)NC23C(=O)c4c(N)cccc4C2(O)Oc2cc(C(C)C)ccc23)ccn1` (stereo not shown) [Example 249, N-(1-Amino-4b-hydroxy-7-isopropyl-10-oxo-9b,10-dihydro-4bH-indeno[1,2-b]benzofuran-9b-yl)-2-methylisonicotinamide], for which the 50% effective concentration (EC50) in the test on Coxsackie B1 is under 0.01 µg/mL; in the test on Coxsackie B3, under 0.01 µg/mL; with Rhinovirus (setting [1]), under 0.01 µg/mL; in the test on Rhinovirus (setting [2]) it was under 1 µg/mL; in the test on Rhinovirus (setting [3]), under 1 µg/mL.
In the case of `CC(C)c1ccc2c(c1)OC1(O)c3cccc(N)c3C(=O)C21NC(=O)c1ccncc1F` (stereo not shown) [Example 250, N-(1-Amino-4b-hydroxy-7-isopropyl-10-oxo-9b,10-dihydro-4bH-indeno[1,2-b]benzofuran-9b-yl)-3-fluoroisonicotinamide], the concentration giving a half-maximal response (EC50) with Coxsackie B1 is under 0.01 µg/mL; in the test with Coxsackie B3, under 0.01 µg/mL; in the test on Rhinovirus (setting [1]), under 0.01 µg/mL; in the test with Rhinovirus (setting [2]), under 1 µg/mL; in the test on Rhinovirus (setting [3]) it was under 1 µg/mL.
`CC(C)c1ccc2c(c1)OC1(O)c3cccc(N)c3C(=O)C21NC(=O)c1ccncc1Cl` (stereo not shown) [Example 251, N-(1-Amino-4b-hydroxy-7-isopropyl-10-oxo-9b,10-dihydro-4bH-indeno[1,2-b]benzofuran-9b-yl)-3-chloroisonicotinamide]: the EC50 was under 0.01 µg/mL with Coxsackie B1, under 0.01 µg/mL with Coxsackie B3, under 0.01 µg/mL in the test with Rhinovirus (setting [1]) and under 1 µg/mL in the test on Rhinovirus (setting [2]).
Turning to `CC(C)c1ccc2c(c1)OC1(O)c3cccc(N)c3C(=O)C21NC(=O)c1nccn1C` (stereo not shown) [Example 252, N-(1-Amino-4b-hydroxy-7-isopropyl-10-oxo-9b,10-dihydro-4bH-indeno[1,2-b]benzofuran-9b-yl)-1-methyl-1H-imidazole-2-carboxamide], the half-maximal effective concentration (EC50) in the test with Coxsackie B1, in the test with Coxsackie B3 and with Rhinovirus (setting [1]) was under 0.01 µg/mL in each case.
For `CC(C)c1ccc2c(c1)OC1(O)c3cccc(N)c3C(=O)C21NC(=O)c1cccc[n+]1[O-]` (stereo not shown) [Example 253, 2-((1-Amino-4b-hydroxy-7-isopropyl-10-oxo-9b,10-dihydro-4bH-indeno[1,2-b]benzofuran-9b-yl)carbamoyl)pyridine 1-oxide], the EC50 with Coxsackie B1, in the test with Coxsackie B3 and in the test with Rhinovirus (setting [1]) was under 0.01 µg/mL throughout.
`CC(C)c1ccc2c(c1)OC1(O)c3cccc(N)c3C(=O)C21NC(=O)c1cnccc1Cl` (stereo not shown) [Example 254, N-(1-Amino-4b-hydroxy-7-isopropyl-10-oxo-9b,10-dihydro-4bH-indeno[1,2-b]benzofuran-9b-yl)-4-chloronicotinamide]: the 50% effective concentration (EC50) with Coxsackie B1, in the test on Coxsackie B3 and in the test on Rhinovirus (setting [1]) was under 0.01 µg/mL throughout.
As for `CC(C)c1ccc2c(c1)OC1(O)c3cccc(N)c3C(=O)C21NC(=O)c1cncc(F)c1` (stereo not shown) [Example 255, N-(1-Amino-4b-hydroxy-7-isopropyl-10-oxo-9b,10-dihydro-4bH-indeno[1,2-b]benzofuran-9b-yl)-5-fluoronicotinamide], the concentration giving a half-maximal response (EC50) in the test on Coxsackie B1 is under 0.01 µg/mL; with Coxsackie B3, under 0.01 µg/mL; with Rhinovirus (setting [1]), under 0.01 µg/mL; in the test with Rhinovirus (setting [2]) it was under 1 µg/mL; with Rhinovirus (setting [3]) it was under 1 µg/mL.
With `CC(C)c1ccc2c(c1)OC1(O)c3cccc(N)c3C(=O)C21NC(=O)c1cncc(O)c1` (stereo not shown) [Example 256, N-(1-Amino-4b-hydroxy-7-isopropyl-10-oxo-9b,10-dihydro-4bH-indeno[1,2-b]benzofuran-9b-yl)-5-hydroxynicotinamide], the 50% effective concentration (EC50) in the test on Coxsackie B1 is under 0.01 µg/mL; in the test on Coxsackie B3, under 0.01 µg/mL; in the test on Rhinovirus (setting [1]), under 0.01 µg/mL; with Rhinovirus (setting [2]), under 1 µg/mL; in the test with Rhinovirus (setting [3]) it was under 1 µg/mL.
Turning to `CC(C)c1ccc2c(c1)OC1(O)c3cccc(N)c3C(=O)C21NC(=O)c1ncccc1O` (stereo not shown) [Example 257, N-(1-Amino-4b-hydroxy-7-isopropyl-10-oxo-9b,10-dihydro-4bH-indeno[1,2-b]benzofuran-9b-yl)-3-hydroxypicolinamide], the EC50 in the test with Coxsackie B1, in the test with Coxsackie B3 and with Rhinovirus (setting [1]) was under 0.01 µg/mL throughout.
For `Cc1ccncc1C(=O)NC12C(=O)c3c(N)cccc3C1(O)Oc1cc(C(C)C)ccc12` (stereo not shown) [Example 258, N-(1-Amino-4b-hydroxy-7-isopropyl-10-oxo-9b,10-dihydro-4bH-indeno[1,2-b]benzofuran-9b-yl)-4-methylnicotinamide], the EC50 in the test on Coxsackie B1 is under 0.01 µg/mL; with Coxsackie B3 it was under 0.01 µg/mL; with Rhinovirus (setting [1]), under 0.01 µg/mL; in the test with Rhinovirus (setting [2]), under 1 µg/mL.

For the origin of these results see patent US9890133B2 (priority 2011, dated 2018).
